“And” between values parts separate entries of the source, which are not always exact repeats. Equal entries are not always repeated. The whole screen tested about 310,000 compounds, of which about 11,000 (3.5%) were called active. The shares of active, inactive and inconclusive entries below differ from those in the screen. The call rests on the fitted dose curve; in most records, active means well fitted inhibition curve with a large enough effect; inconclusive means small, poorly fitted or top-dose-only effect, or effect the other way; inactive means flat fitted curve, though single readings scatter. Potencies beside an inconclusive call are fits to weak or partial responses and may not hold up.
Test: VP16 counterscreen qHTS for inhibitors of ROR gamma transcriptional activity;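 further: Gal4-VP16 expression switched on by copper sulfate through the metallothionein promoter; nearly all actives have a fitted effect of over 50% in size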
Conditions: Drosophila S2 Gal4-VP16 UAS-luciferase, luminescence, 20 h; activity, negative = inhibition: at 53.6 µM (top of the series)
On the % scale 0 is the no-effect control and ±100 the full control effect; potency means the concentration at half of the fitted maximal effect; tags describe the fitted curve by direction and shape.

SMILES	Potency	activity, negative = inhibition
N#CC1=C(S)N(c2ccccc2)C(c2ccc(-c3cccc(Cl)c3)o2)NC1=O (centres undefined)	inconclusive: 35.5 µM [inhibitor, single point]	–
CC(=O)Nc1ccc(N=c2cc([N+](=O)[O-])cc(Cl)n2O)cc1	inconclusive: 17.8 µM [inhibitor, single point]	–
O=C(Nc1ccncc1)c1c(F)cccc1F	inconclusive: 20 µM [inhibitor, single point]	–
N=c1ccn(Cc2cccc(Cl)c2)cc1	inconclusive: 35.5 µM [inhibitor, single point]	–
COCCOC(=O)C1=C(C)NC(C)=C(C(=O)OC/C=C/c2ccccc2)C1c1cccc([N+](=O)[O-])c1 (centres undefined)	inconclusive: 12.6 µM [inhibitor, partial curve] and inconclusive: 11.2 µM [inhibitor, single point]	–
Cc1ccc(NN2C(=O)C=C(c3ccc(Cl)cc3)C2=O)cc1	active: 8.91 µM	–
CCn1c(C)nc2cc(C(=O)NNC(=S)Nc3ccc(C)cc3)ccc21	inconclusive: 22.4 µM [inhibitor, single point]	–
Cc1ccnc(Sc2ccc([N+](=O)[O-])cc2[N+](=O)[O-])n1	inconclusive: 22.4 µM [inhibitor, single point]	–
O=C(Cc1ccc(F)cc1)N/N=C/c1ccc2c(c1)OCO2	inconclusive: 1.58 µM [activator, full curve]	–
CNc1ccc(/C=C2\COc3ccccc3C2=O)cc1[N+](=O)[O-]	inconclusive: 0.282 µM [activator, full curve]	–
COc1ccc(-n2c(CCc3ccccc3)nnc2SCC(=O)NCc2ccccc2)cc1	inconclusive: 35.5 µM [inhibitor, single point]	–
COc1cc2oc(=O)cc(-c3ccc(-c4ccc(NC(C)=O)cc4)cc3)c2c(OC)c1OC	–	inactive: -4.5%
CC1=C(C(=O)O)N2C(=O)[C@@H](NC(=O)[C@@H](N)c3ccc(O)cc3)[C@@H]2SC1	–	inactive: 6.17% [at 17 µM]
c1ccc(Nc2ccc3c4c(cccc24)CC3)cc1	inconclusive: 35.5 µM [inhibitor, single point]	–
CCCCC(=O)NC(=S)Nc1c(C)cc(Br)cc1C	inconclusive: 35.5 µM [inhibitor, single point]	–
COc1ccc(-c2cn(-c3cccc(C)c3)c(=O)[nH]2)cc1OC	–	inactive: -5.66%
Cc1cccc(-c2nc(=S)c3c(n2Cc2ccco2)CCCC3)c1	inconclusive: 35.5 µM [inhibitor, single point]	–
CCN(CC)S(=O)(=O)c1ccc(/C=C/C(=O)Nc2ccc(F)c(F)c2F)cc1	inconclusive: 15.8 µM [inhibitor, partial curve]	–
CN1CCN(C2=CC(=O)OC23CCCCC3)CC1	–	inactive: 2.58%
Cn1c(=O)oc2cc(S(=O)(=O)N3CCCc4ccccc43)ccc21	–	inactive: -2.12%
CCOC(=O)c1ccc(NC(=O)CC2OCCN(CC)C2=O)cc1 (centres undefined)	inconclusive: 35.5 µM [inhibitor, single point]	–
Cc1cccc(Nc2nc(N3CCN(C)CC3)nc(N)c2[N+](=O)[O-])c1	inconclusive: 11.2 µM [inhibitor, partial curve]	–
COc1cc(NC(C)=O)c2ncccc2c1[N+](=O)[O-]	inconclusive: 3.98 µM [inhibitor, full curve, poor fit]	–

SMILES	Potency	activity, negative = inhibition
O=C(CN1C2CCCC1CC(NC(=O)C1CCCCC1)C2)NCc1ccc(F)cc1 (centres undefined)	inconclusive: 17.8 µM [inhibitor, single point]	–
O=c1c2ccc(Cl)cc2[nH]c(=S)n1Cc1cccnc1	inconclusive: 10 µM [inhibitor, partial curve]	–
O=S(=O)(Cc1cc(NCc2ccccc2)nc(-c2ccccn2)n1)c1ccccc1	inconclusive: 25.1 µM [inhibitor, single point]	–
CC(=O)c1c(C)[nH]c(C(=O)Nc2ccc(C)cc2Br)c1C	inconclusive: 4.47 µM [inhibitor, single point]	–
COC(=O)c1ccc(C2N=C(c3cccs3)CC(c3ccccc3O)N2)cc1 (centres undefined)	inconclusive: 35.5 µM [inhibitor, single point]	–
CN(C)c1nnnn1-c1ccc(Oc2ncc(C(F)(F)F)cc2Cl)cc1	inconclusive: 35.5 µM [inhibitor, single point]	–
COC(=O)c1ccc(N2C(=O)CC(Sc3n[nH]c(C)n3)C2=O)cc1 (centres undefined)	inconclusive: 35.5 µM [inhibitor, partial curve]	–
CCCCCCOC(=O)CCn1[nH]c(=O)c2ccccc2c1=O	inconclusive: 22.4 µM [inhibitor, single point]	–
CC(C)Cc1ccc(S(=O)(=O)N2CCN(C(=O)c3ccco3)CC2)cc1	inconclusive: 22.4 µM [inhibitor, single point]	–
COc1ccc(N/N=C(/N=Nc2nc(C)cc(=O)[nH]2)c2ccccc2)cc1	active: 5.01 µM	–
CCn1c(SCc2ccc(Cl)cc2)nc2nc3c(cc2c1=O)CCCC3	inconclusive: 35.5 µM [inhibitor, single point]	–
O=C(CN1CCN(C(=S)NC2CCCC2)CC1)Nc1ccc(Oc2ccccc2)cc1	inconclusive: 35.5 µM [inhibitor, single point]	–
O=C(COc1ccccc1Cl)c1ccc[nH]1	inconclusive: 10 µM [activator, single point]	–
Cc1ccc(C[C@H](C(=O)O)N2C(=O)c3ccc(C(=O)O)cc3C2=O)cc1	–	inactive: -1.93%
COc1ccc(NC(=O)n2ncc3c(C)cccc32)cc1OC	inconclusive: 2.24 µM [inhibitor, full curve]	–
CCCCCCOC(=O)C(C#N)c1nc2ccccc2nc1N1CCN(CC)CC1 (centres undefined)	inconclusive: 35.5 µM [inhibitor, single point]	–
Clc1ccccc1-c1nc2ccccc2c2nc3ccccc3n12	active: 20 µM	–
O=C(c1ccncc1)N1CCC2(CCN(Cc3ccccc3)CC2)CC1	–	inactive: 8.74%
C[n+]1nc(Nc2cccc(F)c2)sc1-c1ccc(C(=O)O)cc1	–	inactive: -0.484%
CC(C)C(NS(=O)(=O)c1cccc2nsnc12)C(=O)Nc1nc2ccc(Cl)cc2s1 (centres undefined)	inconclusive: 17.8 µM [inhibitor, single point]	–
CCCC(=O)Nc1sc2c(c1C#N)CCCCC2	inconclusive: 3.55 µM [activator, single point]	–
Cc1nn(C)c(C)c1CNC(=O)c1nn2c(c1Cl)NC(c1cccs1)CC2C(F)(F)F (centres undefined)	inconclusive: 35.5 µM [inhibitor, single point]	–
COc1ccc(Cc2nc3ccccc3n2CC(=O)N/N=C/c2ccc(C)cc2O)cc1OC	active: 6.31 µM	–

SMILES	Potency	activity, negative = inhibition
O=C(NC1CC1)C1=C[C@@H](C2CCCCC2)C[C@@H](OCc2ccc(CO)cc2)O1	inconclusive: 7.94 µM [inhibitor, partial curve]	–
N#C/C(=C/c1cccc([N+](=O)[O-])c1)c1nnc2n1CCCCC2	inconclusive: 35.5 µM [inhibitor, single point]	–
C=CCn1c(=O)c2ccc(C(=O)NCc3ccccc3)cc2n(Cc2cccc(Cl)c2)c1=O	inconclusive: 25.1 µM [inhibitor, single point]	–
Oc1ccc(Br)cc1-c1nc2cnccn2c1NC1CCCCC1	inconclusive: 35.5 µM [inhibitor, single point]	–
CC(Sc1ccccc1)C(=O)N1CCN(S(=O)(=O)c2ccc(Cl)cc2)CC1 (centres undefined)	–	inactive: 7.78%
Cc1cc(C)c2nc(N3CCCN(C(=O)c4ccco4)CC3)c(C#N)cc2c1	inconclusive: 25.1 µM [inhibitor, single point]	–
c1ccc2[nH]c(CCCc3nc4ccccc4[nH]3)nc2c1	–	inactive: 2.17%
CCn1c(=O)c([N+](=O)[O-])c(Cl)c2ccccc21	active: 8.91 µM	–
O=[N+]([O-])c1cccc(-c2nnc(-c3ccccc3F)o2)c1	–	inactive: -2.28%
CCn1c(=O)cc(OCC(=O)N2CCCCCC2)c2ccccc21	–	inactive: 1.1%
COC(=O)c1cc(NS(=O)(=O)c2ccc(N3CCC(C)CC3)c([N+](=O)[O-])c2)cc(C(=O)OC)c1	–	inactive: 1.82%
Nc1c(S(=O)(=O)c2cccc(Cl)c2)c2nc3ccccc3nc2n1/N=C/c1ccc(O)c(O)c1	inconclusive: 35.5 µM [inhibitor, single point]	–
Cc1ccc(S(=O)(=O)CC(=O)Nc2ccccn2)cc1	–	inactive: 3.21%
Cc1ccc(OC(C)C(=O)N=Nc2c(O)[nH]c3ccc([N+](=O)[O-])cc23)cc1 (centres undefined)	inconclusive: 35.5 µM [inhibitor, single point]	–
O=C(COc1ccccc1)Nc1cccc(-c2nc3cc4ccccc4cc3[nH]2)c1	active: 2 µM	–
COc1ccc(N(C(C)C(=O)N2CCC(Cc3ccccc3)CC2)S(C)(=O)=O)cc1 (centres undefined)	inconclusive: 22.4 µM [inhibitor, single point]	–
O=C(Nc1ccc(Br)c(C(F)(F)F)c1)c1ccc(C(F)(F)F)cc1	inconclusive: 35.5 µM [inhibitor, single point]	–
CN1CCN(CCC(=O)N/N=C/c2cc([N+](=O)[O-])ccc2O)CC1	inconclusive: 22.4 µM [inhibitor, single point]	–
O=c1[nH]cc(N=Cc2cc([N+](=O)[O-])ccc2O)c(=O)[nH]1	–	inactive: -0.794%
Cc1ccc(C(=O)NC(=S)Nc2ccccc2N2CCOCC2)cc1C	active: 7.94 µM	–
Cc1cccc(N/C(N)=N/c2nc(CSc3ccc(Cl)cc3)cc(=O)[nH]2)c1	–	inactive: 4.9%
Cc1cc(C)nc(Nc2n[nH]c(-c3cccc4ccccc34)n2)n1	inconclusive: 35.5 µM [inhibitor, single point]	–
N/C(CN1CCCC1=O)=N\OC(=O)c1ccccc1Cl	inconclusive: 7.08 µM [activator, partial curve]	–
